One test deals with HSkMC. As to the kind of experiment: cytotoxicity call (relative viability < 0.9). The settings on record: 10 µM.
The next test concerns HepG2. As to the kind of experiment: cytotoxicity call (relative viability < 0.9). Conditions: 10 µM.
A further test relates to S. aureus RN4220. As to the kind of experiment: growth inhibition call (relative growth <= 0.2). Conditions: 50 µM.

We go through 25 compounds from the antibiotic and cytotoxicity screens of Wong et al. (2023).

Some of the results follow.

As to `CCCN(C)C[C@H]1OCCCC[C@@H](C)Oc2ccc(NC(=O)C3CCCCC3)cc2C(=O)N([C@H](C)CO)C[C@H]1C`, the cytotoxicity call with HSkMC and in the test on HepG2 was “inactive” in each case. Further, the growth inhibition call in the test with S. aureus RN4220 is “inactive”.
Turning to `C[C@@H]1CCCCO[C@H](CN(C)S(=O)(=O)c2cn(C)cn2)[C@@H](C)CN([C@H](C)CO)C(=O)c2cc(NS(C)(=O)=O)ccc2O1`, the cytotoxicity call in the test on HSkMC and with HepG2 was “inactive” each time. Also, the growth inhibition call with S. aureus RN4220 is “inactive”.
Turning to `C[C@H]1CN([C@@H](C)CO)C(=O)c2cc(NC(=O)Nc3ccc(F)cc3)ccc2O[C@@H]1CN(C)Cc1ccc(Oc2ccccc2)cc1`, in the test on HSkMC, the cytotoxicity call was “inactive”. Moreover, the cytotoxicity call in the test on HepG2 was “active”. The growth inhibition call with S. aureus RN4220 is “inactive”.
`COc1ccc(NC(=O)N(C)C[C@@H]2OCCCC[C@H](C)Oc3ccc(NC(=O)c4ccncc4)cc3C(=O)N([C@H](C)CO)C[C@@H]2C)cc1`: the cytotoxicity call with HSkMC and with HepG2 was “inactive” each time. The growth inhibition call in the test with S. aureus RN4220 was “inactive”.
With `COc1ccc(NC(=O)Nc2ccc3c(c2)C(=O)N([C@H](C)CO)C[C@H](C)[C@H](CN(C)C(=O)C2CCCCC2)OCCCC[C@H](C)O3)cc1`, the cytotoxicity call in the test on HSkMC and in the test with HepG2 was “inactive” each time. For the same compound, in the test with S. aureus RN4220, the growth inhibition call is “inactive”.
On to `CC(C)Oc1oc(C(=O)NC2CCCCC2)c(-c2ccc(Cl)cc2)c1S(=O)(=O)c1ccc(Cl)cc1`, for which the cytotoxicity call in the test on HSkMC and in the test on HepG2 was “inactive” throughout. In the test with S. aureus RN4220, the growth inhibition call was “inactive”.
Turning to `NC(=O)c1cc2ccccc2oc1=O`, the cytotoxicity call in the test on HSkMC and in the test on HepG2 was “inactive” in each case. In the test on S. aureus RN4220, the growth inhibition call is “inactive”.
With `C[C@H](CO)N1C[C@H](C)[C@@H](CN(C)S(=O)(=O)c2cccs2)Oc2ccc(NC(=O)c3ccncc3)cc2CC1=O`, the cytotoxicity call in the test on HSkMC and with HepG2 was “inactive” each time. For the same compound, the growth inhibition call in the test on S. aureus RN4220 is “inactive”.
Take `C[C@@H]1CCCCO[C@@H](CN(C)S(=O)(=O)c2ccccc2)[C@H](C)CN([C@@H](C)CO)C(=O)c2cc(NC(=O)Nc3ccc(C(F)(F)F)cc3)ccc2O1`: the cytotoxicity call in the test on HSkMC and in the test on HepG2 was “inactive” throughout. Further, the growth inhibition call in the test with S. aureus RN4220 is “inactive”.
As for `CN(C)C(=O)c1ccc(CO)cc1`, the cytotoxicity call in the test with HSkMC and in the test with HepG2 was “inactive” each time. Further, the growth inhibition call in the test with S. aureus RN4220 is “inactive”.
On to `COCC(=O)N[C@@H]1C=C[C@@H](CC(=O)N2CCCCC2)O[C@H]1CO`, for which the cytotoxicity call in the test on HSkMC and with HepG2 was “inactive” each time. For the same compound, the growth inhibition call in the test on S. aureus RN4220 is “inactive”.
As for `Cc1noc(C)c1S(=O)(=O)N(C)C[C@H]1OCCCC[C@H](C)Oc2ccc(NC(=O)Nc3cccc4ccccc34)cc2C(=O)N([C@H](C)CO)C[C@H]1C`, the cytotoxicity call in the test with HSkMC and in the test with HepG2 was “inactive” in each case. Also, the growth inhibition call in the test on S. aureus RN4220 is “inactive”.
As to `CC(C)NC(=O)N(C)C[C@@H]1OCCCC[C@H](C)Oc2ccc(NC(=O)Nc3cccc4ccccc34)cc2C(=O)N([C@@H](C)CO)C[C@H]1C`, the cytotoxicity call in the test on HSkMC and in the test with HepG2 was “inactive” each time. Also, the growth inhibition call in the test with S. aureus RN4220 is “inactive”.
For the compound `C[C@@H]1CN([C@H](C)CO)C(=O)c2cc(NC(=O)C3CCCCC3)ccc2O[C@@H](C)CCCCO[C@@H]1CN(C)C(=O)Nc1ccc2c(c1)OCO2`, the cytotoxicity call in the test with HSkMC and in the test with HepG2 was “inactive” in each case. The growth inhibition call in the test on S. aureus RN4220 is “inactive”.
In the case of `C[C@@H]1CN([C@@H](C)CO)S(=O)(=O)c2ccc(C#C[C@@H](C)O)cc2O[C@@H]1CN(C)C(=O)Cc1ccccn1`, the cytotoxicity call in the test with HSkMC and in the test with HepG2 was “inactive” throughout. Moreover, the growth inhibition call with S. aureus RN4220 was “inactive”.
Regarding `C[C@@H]1CN([C@@H](C)CO)C(=O)c2cc(NS(=O)(=O)c3ccc(Cl)cc3)ccc2O[C@@H](C)CCCCO[C@@H]1CN(C)S(=O)(=O)c1ccc(Cl)cc1`, in the test with HSkMC, the cytotoxicity call is “inactive”. Also, in the test with HepG2, the cytotoxicity call is “active”. For the same compound, the growth inhibition call in the test on S. aureus RN4220 is “inactive”.
Turning to `CC(C)NC(=O)N(C)C[C@@H]1Oc2ccc(NC(=O)CCN3CCOCC3)cc2C(=O)N([C@@H](C)CO)C[C@H]1C`, the cytotoxicity call with HSkMC and with HepG2 was “inactive” each time. The growth inhibition call in the test on S. aureus RN4220 was “inactive”.
Take `COc1ccc(NC(=O)N(C)C[C@H]2Oc3ccc(NS(=O)(=O)c4cn(C)cn4)cc3C(=O)N([C@@H](C)CO)C[C@H]2C)cc1`: the cytotoxicity call in the test with HSkMC and in the test with HepG2 was “inactive” in each case. Besides, in the test with S. aureus RN4220, the growth inhibition call is “inactive”.
`Cc1noc(C)c1S(=O)(=O)N(C)C[C@@H]1Oc2ccc(NS(=O)(=O)c3ccc(Cl)cc3)cc2CC(=O)N([C@H](C)CO)C[C@H]1C`: the cytotoxicity call with HSkMC and with HepG2 was “inactive” in each case. Further, the growth inhibition call with S. aureus RN4220 was “inactive”.
In the case of `C[C@@H]1CN([C@@H](C)CO)C(=O)c2cc(NC(=O)Nc3ccc(C(F)(F)F)cc3)ccc2O[C@@H]1CN(C)C(=O)NC1CCCCC1`, in the test with HSkMC, the cytotoxicity call is “inactive”. Further, the cytotoxicity call with HepG2 was “active”. Further, the growth inhibition call in the test on S. aureus RN4220 is “inactive”.
As for `C=CC[C@H](CC(=O)NCCO)C(=O)N[C@@H](COC(=O)[C@H](CC=C)CC(=O)OC(C)(C)C)Cc1ccccc1`, the cytotoxicity call in the test with HSkMC and in the test on HepG2 was “inactive” in each case. The growth inhibition call in the test with S. aureus RN4220 was “inactive”.
Consider `NC[C@H](c1cccs1)N1CCCCCC1`, for which the cytotoxicity call with HSkMC and with HepG2 was “inactive” throughout. Also, the growth inhibition call in the test with S. aureus RN4220 was “inactive”.
On to `O=c1nc(NCc2ccco2)cc[nH]1`, for which the cytotoxicity call in the test with HSkMC and with HepG2 was “inactive” throughout. Moreover, the growth inhibition call in the test on S. aureus RN4220 was “inactive”.
With `C[C@H](CO)N1C[C@H](C)[C@H](CN(C)Cc2ccc(Oc3ccccc3)cc2)Oc2ccc(NC(=O)Nc3ccc4c(c3)OCO4)cc2CC1=O`, in the test on HSkMC (human skeletal muscle cells), the cytotoxicity call is “inactive”. Further, the cytotoxicity call with HepG2 is “active”. Further, the growth inhibition call with S. aureus RN4220 was “inactive”.
Take `C[C@@H]1CN([C@@H](C)CO)S(=O)(=O)c2ccc(C#CC3CCCC3)cc2O[C@@H]1CN(C)C(=O)Cc1ccncc1`: the cytotoxicity call with HSkMC and with HepG2 was “inactive” each time. In addition, the growth inhibition call in the test with S. aureus RN4220 is “inactive”.
